Reference: PubChem BioAssay AID686992 (Broad Institute, 2013)
Out of some 260,000 compounds screened, about 960 (0.37%) were called active. Inconclusive results, whose numbers are uncertain, are shown with a selection of clear calls.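 The calls were made as follows: active = mean E-selectin-positive cell signal at least 10% of the positive control, reached in at least 60% of replicates, without over 20% cell loss; inconclusive = no rule given, readout overlaps actives, possibly toxicity-flagged; inactive = the rest, including those meeting only one limit.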

Target: E-selectin (Homo sapiens) (UniProt P16581)
Assay: inducers of endothelial E-selectin expression – imaging, HUVEC, immunofluorescence imaging, single point, primary screen (AID 686992);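 also: signal is the percent of cells scored E-selectin positive by PE staining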
Conditions: at 7.58 µM, active compounds read high, normalized: neutral wells 0, TNF-alpha wells 100
Summary of the method: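 Read-out basis: % PE-positive cells; Test system: HUVEC primary endothelial cells; Technique: immunofluorescence imaging; Dosing: single-point compound dose.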

Sequence of UniProt P16581 (P16581 whole entry, looked up): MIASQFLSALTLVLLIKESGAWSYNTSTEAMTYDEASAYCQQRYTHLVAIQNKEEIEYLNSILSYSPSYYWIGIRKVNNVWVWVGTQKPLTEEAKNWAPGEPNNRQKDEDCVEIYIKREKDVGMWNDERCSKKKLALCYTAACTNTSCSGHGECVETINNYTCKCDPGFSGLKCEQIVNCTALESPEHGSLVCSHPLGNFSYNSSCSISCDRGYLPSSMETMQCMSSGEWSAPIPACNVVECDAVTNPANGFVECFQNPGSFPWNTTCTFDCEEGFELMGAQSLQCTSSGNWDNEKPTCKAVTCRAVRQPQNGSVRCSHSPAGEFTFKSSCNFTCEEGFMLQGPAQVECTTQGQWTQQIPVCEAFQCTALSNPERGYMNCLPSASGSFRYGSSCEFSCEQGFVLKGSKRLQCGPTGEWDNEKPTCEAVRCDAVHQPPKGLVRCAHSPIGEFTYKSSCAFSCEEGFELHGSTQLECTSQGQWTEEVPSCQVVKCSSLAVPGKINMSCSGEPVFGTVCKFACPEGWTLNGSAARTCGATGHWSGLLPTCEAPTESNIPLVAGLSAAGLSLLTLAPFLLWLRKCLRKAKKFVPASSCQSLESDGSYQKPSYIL

| SMILES | activation |
| --- | --- |
| C[C@H]1CN([C@@H](C)CO)C(=O)c2cc(NS(=O)(=O)c3ccc(F)cc3)ccc2O[C@H]1CN(C)S(C)(=O)=O | inconclusive: 37.7% |
| COCCn1c(SCc2cccc(F)c2)nc2cc(C(=O)OC)ccc2c1=O | inconclusive: 77.5% |
| COC(=O)[C@@]1(Sc2ccccc2)CC(=O)N[C@@H]1c1ccccc1 | inconclusive: 60.3% |
| COC(=O)c1ccc(-n2cnc3ccccc32)nc1 | inconclusive: 64.8% |
| C[C@@H]1CN([C@H](C)CO)C(=O)Cc2cc(NS(=O)(=O)c3ccc(Cl)cc3)ccc2O[C@H]1CN(C)CC1CCCCC1 | inactive: -11.1% |
| COc1ccc(S(=O)(=O)N[C@@H]2CC[C@@H](CC(=O)NCc3ccccc3F)O[C@H]2CO)cc1 | inactive: -0.612% |
| CCc1ccccc1Nc1nc2ccccc2[nH]1 | inactive: 0.466% |
| C[C@H]1CN([C@@H](C)CO)C(=O)c2cccc(NS(=O)(=O)c3cn(C)cn3)c2O[C@@H]1CN(C)C(=O)Nc1ccc(C(F)(F)F)cc1 | inconclusive: 26.2% |
| O=C(CN1C(=O)NC(Cc2c[nH]c3ccccc23)C1=O)Nc1ccc(Br)cc1F (stereo not drawn) | inactive: 0.248% |
| CN(C)CCNC(=O)c1cccc(-c2cnc3c(NC=O)cc(-c4ccc(F)cc4)cn23)c1 | inactive: 2.51% |
| Cn1c(Nc2ccccc2)cc(=O)n(C)c1=O | inconclusive: 43.3% |
| C[C@@H]1CN([C@H](C)CO)C(=O)c2cccc(NC(=O)Nc3cccc4ccccc34)c2O[C@@H]1CN(C)C(=O)Nc1ccc(F)cc1 | inconclusive: 43% |
| COCCCN1C(=O)c2ccc(C(=O)Nc3ccccc3Cl)cc2C1=O | inconclusive: 34.7% |
| Cc1ccccc1S(=O)(=O)N1C[C@H]2CON(C)[C@H]2C[C@H]1c1cccc(N2CCOCC2)c1 | inconclusive: 32.5% |
| CCN1C[C@@H]2[C@@H]3C(=O)N(Cc4ccccc4)C(=O)[C@@H]3[C@](Cc3ccccc3)(C(=O)OC)N2C1=NCc1ccccc1 | inactive: -0.164% |
| COc1ccc(CC(N)c2csc(NC(=O)c3ccc(F)cc3)n2)cc1 (stereo not drawn) | inactive: 0.39% |
| Cc1cc(C)c2nc(NC(=O)c3ccc4c(=O)n5c(nc4c3)CCCCC5)sc2c1 | active: 34.5% |
| CC(C)CCN(C(=O)CNC(=O)c1cccs1)C(C(=O)NC1CCCCC1)c1cccnc1 (stereo not drawn) | inconclusive: 29.8% |
| CCOc1ccc(CCN2C(=S)N([C@@H](Cc3ccc(O)cc3)CN3CCC[C@@H]3CN3C(=S)NC[C@@H]3CC(C)C)C[C@@H]2Cc2ccc(O)cc2)cc1 | inconclusive: 116% |
| O=C(CNC(=O)C1CCCCC1)NC1CCCCC1 | inconclusive: 69% |
| CC1(C)CCC(=O)N2CC[C@H]3C[C@H](OC(=O)Nc4ccccc4)C[C@@H]1[C@H]32 | inactive: -0.06% |
| C[C@H](CO)N1C[C@H](C)[C@H](CN(C)Cc2ccc(Cl)c(Cl)c2)Oc2ccc(NC(=O)Nc3ccc4c(c3)OCO4)cc2CC1=O | inconclusive: 170% |
| CCN(CC)S(=O)(=O)c1ccc(NC2c3ccccc3C(=O)N2Cc2ccc3c(c2)OCO3)cc1 (stereo not drawn) | inactive: 1.17% |
| O=C(NN1C(=O)c2ccccc2NC1c1cccnc1)c1ccccc1 (stereo not drawn) | inconclusive: 31.3% |
| Cc1ccc(S(=O)(=O)/N=C(/Nc2cccc3ccccc23)c2ccc(F)cc2)cc1 | inconclusive: 30.6% |

| SMILES | activation |
| --- | --- |
| O=C(C[C@@H]1CC[C@H]2[C@@H](COC[C@H](O)CN2S(=O)(=O)c2ccccc2)O1)NCC1CCCCC1 | inactive: -0.157% |
| COc1ccc(CN(C)C[C@H]2Oc3ccc(NS(=O)(=O)c4c(C)noc4C)cc3CC(=O)N([C@@H](C)CO)C[C@@H]2C)cc1 | inconclusive: -0.139% |
| C[C@H](CO)N1C[C@H](C)[C@H](CN(C)Cc2ccc(Oc3ccccc3)cc2)Oc2c(NC(=O)C3CCOCC3)cccc2C1=O | active: 168% |
| CCC(=O)Nc1nnc(SCC(=O)Nc2ccc3c(c2)OCO3)s1 | inconclusive: 53.5% |
| O=C(COC(=O)/C=C/c1ccc2c(c1)OCO2)NC1CCS(=O)(=O)C1 (stereo not drawn) | inconclusive: 43.5% |
| O=C(NCCCCCCNC(=O)c1cncc(O)c1)c1cncc(O)c1 | inconclusive: 76.2% |
| O=C(NCc1ccon1)C1CCC(=O)N(Cc2cccc(C(F)(F)F)c2)C1 (stereo not drawn) | inconclusive: 33.9% |
| O=C(C1CCOCC1)N1C[C@@H]2[C@H](c3ccccc31)[C@H](CO)N2Cc1ccccc1F | inactive: 0.108% |
| O=C(Cn1ccc(NC(=O)OCc2ccccc2)nc1=O)NCCc1ccccn1 | inconclusive: 28.9% |
| O=C(CCCN1C(=O)/C(=C\c2cccs2)SC1=S)NNC(=O)c1cccnc1 | inconclusive: 204% |
| C[C@H]1CN([C@@H](C)CO)C(=O)c2cccc(NC(=O)NC3CCCCC3)c2O[C@@H]1CN(C)S(=O)(=O)c1ccc(F)cc1 | inconclusive: 47.6% |
| COc1cccc(S(=O)(=O)N[C@@H]2C=C[C@H](CC(=O)NCc3ccc(F)cc3)O[C@H]2CO)c1 | inactive: 0.418% |
| CCOC(=O)Cn1c(=O)oc2cc(S(=O)(=O)NCCCc3ccccc3)ccc21 | inconclusive: 28.2% |
| COCC(=O)NC[C@@H]1[C@@H](c2ccccc2)[C@H](CO)N1C(=O)c1ccccc1 | inconclusive: 69.9% |
| CC(C)NC(=O)N(C)C[C@H]1Oc2ncc(C#Cc3ccc(F)cc3)cc2C(=O)N([C@H](C)CO)C[C@@H]1C | inactive: 0.12% |
| COc1cccc(CNC(=O)c2cc3c(cc2Cl)N2CCCCCC2=NS3(=O)=O)c1 | active: 100% |
| CCOc1ccc(-c2nc(C#N)c(N3CCOCC3)o2)cc1 | inactive: -0.278% |
| CN(C)c1cccc(C(=O)NN2C(=O)NC3(CCCCC3)C2=O)c1 | inconclusive: 80.2% |
| O=C1CC(c2ccccc2)C(C(=O)O)N1 (stereo not drawn) | inconclusive: 49.5% |
| COc1cccc(-c2ccc([C@@H]3[C@@H](CO)N4C(=O)CN(C(=O)C5CCC5)C[C@H]34)cc2)c1 | inconclusive: 59.3% |
| Cc1cccc(C(=O)NC2CCCCCCC2)c1 | inconclusive: 59.4% |
| Cc1ccccc1CS(=O)(=O)c1ncc(Cl)c(C(=O)Nc2ccc(F)cc2)n1 | inconclusive: 31.6% |
| C[C@@H]1CN([C@H](C)CO)C(=O)c2cccc(NC(=O)Nc3cccc4ccccc34)c2O[C@@H]1CN(C)Cc1ccc(-c2ccccc2)cc1 | inactive: -8.59% |
| C[C@@H]1CCCCO[C@@H](CN(C)Cc2ccc3c(c2)OCO3)[C@@H](C)CN([C@H](C)CO)C(=O)c2cc(NC(=O)Nc3ccccc3)ccc2O1 | inactive: -0.198% |
| CCCNC(=O)C1(C)CCCN(C(=O)Cc2ccc3ccccc3c2)C1 (stereo not drawn) | inconclusive: 38.7% |

| SMILES | activation |
| --- | --- |
| CCCNC(=O)C[C@@H]1CC[C@H]2[C@@H](COC[C@H](O)CN2Cc2cccc(F)c2)O1 | inactive: -0.078% |
| c1ccc(-c2cnnc(-c3ccccn3)n2)cc1 | inactive: -0.093% |
| COc1ccc(/C=N/Nc2ncc(Br)cn2)c(OC)c1 | inconclusive: 29.2% |
| C[C@H]1CN([C@@H](C)CO)C(=O)c2cccc(NS(C)(=O)=O)c2O[C@@H]1CN(C)Cc1ccc(Oc2ccccc2)cc1 | active: 31.8% |
| C[C@@H]1CN([C@@H](C)CO)C(=O)Cc2cc(NS(=O)(=O)c3ccc(Cl)cc3)ccc2O[C@H]1CN(C)C(=O)Nc1ccc(F)cc1 | inconclusive: 23% |
| O=C(O)CN(CC(=O)O)CC(=O)O | inactive: 1.95% |
| COc1ccc([N+](=O)[O-])cc1NC(=O)C(C)Sc1ccc(C)cc1 (stereo not drawn) | inactive: -1.32% |
| c1ccc(Cn2c[n+](Cc3ccccc3)cn2)cc1 | active: 42.8% |
| COc1ccc(N2C(=O)c3ccccc3NC(=O)C2C(=O)NCCc2ccccc2F)cc1 (stereo not drawn) | inconclusive: 46.4% |
| C[C@H]1CN([C@@H](C)CO)C(=O)Cc2cc(NC(=O)Nc3ccc(F)cc3)ccc2O[C@@H]1CN(C)Cc1ccc(C(=O)O)cc1 | inactive: 1.96% |
| Cc1noc(C)c1NC(=O)Nc1ccc2c(c1)CC(=O)N([C@H](C)CO)C[C@H](C)[C@H](CN(C)S(=O)(=O)c1ccccc1)O2 | active: 47.5% |
| O=C1Cc2cc(O)ccc2O1 | inactive: 0.0215% |
| COc1ccc(CN(C)C[C@@H]2Oc3c(NC(=O)NC4CCCCC4)cccc3C(=O)N([C@@H](C)CO)C[C@@H]2C)cc1 | inconclusive: 37.4% |
| Fc1ccc(/C=N/NC(=S)Nc2ccc(Cl)cc2Cl)cc1 | inactive: 5.03% |
| COc1ccc(CN(C)C[C@@H]2Oc3ccc(NS(=O)(=O)c4ccc(F)cc4)cc3C(=O)N([C@@H](C)CO)C[C@@H]2C)cc1 | inconclusive: 36.5% |
| O=C(NC1=NCCS1)C1CC(=O)N(c2ccccc2)C1 (stereo not drawn) | inconclusive: 65.5% |
| Cc1noc(C)c1NC(=O)Nc1ccc2c(c1)C(=O)N([C@H](C)CO)C[C@@H](C)[C@@H](CN(C)Cc1ccc(Cl)c(Cl)c1)OCCCC[C@H](C)O2 | inactive: -0.0565% |
| CCC(=O)N(C)C[C@H]1Oc2cc(C3=CCCC3)ccc2S(=O)(=O)N([C@@H](C)CO)C[C@@H]1C | active: 70.5% |
| O=C1CCC(=O)N1OCCOc1ccc(Cl)c2ccccc12 | inconclusive: 33.8% |
| C[C@@H]1CN([C@@H](C)CO)S(=O)(=O)c2ccc(C#CC3(O)CCCC3)cc2O[C@@H]1CN(C)C(=O)Cc1ccncc1 | inconclusive: 28.9% |
| O=C(c1ccccn1)N1CC[C@H]2[C@H](CO)Nc3ccc(-c4cccc(F)c4)cc3[C@H]21 | inconclusive: 40.9% |
| COc1ccc(NC2=C(NC(C)=O)C(=O)c3ccccc3C2=O)cc1 | inconclusive: 39.6% |
| COc1ccccc1NC(=O)c1ccc(NC(=O)CN(C)Cc2ccccc2F)cc1 | inactive: 0.449% |
